In the supplement of paper PMC3334620:
Over roughly 33,000 sequences, “E-score (-0.5 to 0.5)” has its median near -0.054; the highest 2% begin near 0.35. The list shows a part of the results.

The sequences below were run against T1, Stb5 (UniProt P38699) (assay: PBM E-score (8-mer binding enrichment) (E-score (-0.5 to 0.5)); higher = stronger / more preferred TF binding; most listed sequences are background and not binding sites). Details: protein concentration: 200 nM; construct: GST-full length.
T1 sequence: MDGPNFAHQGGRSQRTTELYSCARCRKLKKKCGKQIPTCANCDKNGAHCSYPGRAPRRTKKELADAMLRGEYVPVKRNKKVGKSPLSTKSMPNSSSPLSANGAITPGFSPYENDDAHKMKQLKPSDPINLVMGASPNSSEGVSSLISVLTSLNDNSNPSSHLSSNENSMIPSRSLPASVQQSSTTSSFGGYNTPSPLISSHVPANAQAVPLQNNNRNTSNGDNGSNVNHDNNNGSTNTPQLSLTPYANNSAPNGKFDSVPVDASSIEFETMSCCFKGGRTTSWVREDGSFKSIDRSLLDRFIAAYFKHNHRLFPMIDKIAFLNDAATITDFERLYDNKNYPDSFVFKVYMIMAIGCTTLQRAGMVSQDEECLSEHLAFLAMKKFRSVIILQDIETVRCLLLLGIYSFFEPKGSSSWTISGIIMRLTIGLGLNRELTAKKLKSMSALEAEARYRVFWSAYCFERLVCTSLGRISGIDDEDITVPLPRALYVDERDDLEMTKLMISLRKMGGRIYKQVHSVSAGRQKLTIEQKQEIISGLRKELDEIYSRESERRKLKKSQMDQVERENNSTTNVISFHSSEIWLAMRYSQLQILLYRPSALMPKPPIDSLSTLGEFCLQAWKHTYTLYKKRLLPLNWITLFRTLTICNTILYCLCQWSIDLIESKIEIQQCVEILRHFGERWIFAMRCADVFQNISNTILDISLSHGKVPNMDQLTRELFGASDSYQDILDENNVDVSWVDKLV
How it was run: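 Bound GST-tagged yeast transcription factors, applied at about 100-200 nM to double-stranded universal all-10-mer Agilent arrays, were detected with fluorescent anti-GST. Scans were normalised with masliner. A modified Wilcoxon-Mann-Whitney statistic, the E-score, was assigned to each ungapped eight-base word pooled with its reverse complement by the Universal PBM Analysis Suite.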

Sequence	PBM E-score
AGAAGCCC	0.197
CGCAGACG	0.00145
AGTCCTCA	0.0201
ATCCTGCA	-0.17
CAAGTACG	-0.21
AGATACCG	0.331
ACGTAGGC	-0.103
ACCTTAGG	-0.0614
GGCGTTAC	0.248
ACGAAGGG	-0.187
TACTTTCA	-0.124
CCGTCACA	0.226
CAATCGTC	-0.093
CTTACATA	0.0352
AACCTATC	-0.0635
AAAGCTCT	-0.161
AGCGGAGG	0.239
CTTGGCTC	-0.143
CCCCCTTA	-0.332
AGCTTGAC	-0.251
GAATCACA	0.174
CCCTACTC	0.0096
AGTGACAC	-0.0727
AATCTACA	-0.0744
AGTTAACC	0.0236

Sequence	PBM E-score
AGGAGCAT	-0.255
CGAGACGC	0.0341
AATACATT	-0.253
CGCATAGA	-0.0293
CACTTGAA	-0.272
AAACGCTT	-0.294
TCTTAACA	-0.0361
TATGGCGA	-0.128
CCCGATGA	0.226
ATAGAGAA	-0.142
ACAGGCAC	-0.106
CAGTCAAA	-0.207
CTAATCGA	-0.131
ACTCTGAA	-0.0962
AATACCGA	0.415
CGTGACTA	-0.0676
CAATGCAG	-0.109
AGCGCAGC	-0.0781
CTTACAGA	-0.093
AGATAAGA	-0.0432
AACACTCT	-0.137
CCCTGCGG	0.153
AAAAGTGG	-0.0292
ACAATGTC	-0.0176
AGTACTAT	-0.157

Sequence	PBM E-score
CCAAATGC	-0.205
ATTACTCA	-0.176
ACTATGCC	0.0989
TCGGGTCA	0.111
CGCTATAA	0.117
AAGCGTGT	-0.272
AGTTGTTA	-0.177
ATCCGCCG	0.285
AGCCAGTG	-0.181
GCCAAGTA	-0.0653
CGCTACTA	0.309
GCACGAAA	-0.0974
GCGCTGTA	0.134
ATTCGTGA	-0.182
ACATTGCG	-0.0644
AACACCCA	-0.0193
GACAATGA	-0.174
ATCATATC	0.0529
ATAGAGAT	-0.185
GAGTGCCA	-0.217
GCAGCCGA	-0.0391
ATCAACGA	0.0713
TATAATCA	0.0875
CAGGACAC	-0.00641
AAATATAT	0.118

Sequence	PBM E-score
AACAACCG	0.199
CAAGAATC	0.0759
CGCAAAAA	-0.126
TGCTGACA	-0.161
ACAGTATG	-0.121
AGTCCACA	-0.0556
AGCGCCTC	-0.0428
CACTTCCA	-0.171
ACCCCACT	-0.167
CATATAAC	0.166
CGGGTTCA	0.278
AAATGTAT	-0.0191
CAAGCCGA	0.0344
GGTCTTCA	-0.0128
AAGCACAG	-0.00662
AACATTAT	-0.0823
CAGATGTA	-0.12
GGGGATAA	0.345
AAAGCAAC	0.0355
AACAGTCG	0.0404
TCTAGCCA	-0.123
CCCTTCGC	-0.186
ACTCCGGG	0.327
CAAAGGGA	-0.175
TGCGTTAA	-0.101

Sequence	PBM E-score
CCGGGCCC	0.252
AGTACCAA	-0.0864
AGCACGTC	-0.0966
ACGGCGGA	0.278
CACGGTTA	0.118
CAAATTCC	0.0596
CCATAGAA	-0.0923
AACATCAC	-0.246
GGAATCGA	-0.0801
TTACAGAA	-0.253
GTATCACA	-0.0755
AGTCGTGG	-0.087
GAACAAAC	0.0428
ATACACAC	-0.094
TTGGTAAA	0.0329
GAATCGCC	0.243
CCCGTGAA	0.0202
AGGCTTCC	-0.303
CGGATGTA	0.381
AGGAGGCA	-0.174
TGATCTAA	-0.176
GTAGAAAA	-0.144
AGCCGATA	0.0102
GGTCTGAA	-0.0414
CTTGACTC	-0.182

Sequence	PBM E-score
ACTTACGG	0.185
ATGAGGCC	0.157
GCTGTGGA	0.12
AAATGGCC	0.179
ACAGACGG	0.139
GATTATAA	0.188
ACTGGTCA	-0.221
ATTGAGAG	0.0147
AAAGGATA	0.0318
AGCGGTAC	0.347
AAGGGCAT	-0.336
GTCTCAAC	0.0224
AGTCCGAT	0.414
AATCACAA	-0.0148
CGGCTCAC	0.0532
AATGGAAA	0.0137
CCGGGGAA	0.25
CGCGAGCC	0.0577
GCAGAGAA	-0.226
GCCGGTCC	0.324
AGGGTACG	-0.25
ATCCTAGA	-0.0568
ACAGTAGA	-0.158
CAGTAGGG	-0.244
ACGTCCCC	-0.0202

Sequence	PBM E-score
AGTGTGAC	-0.326
GGCGCGGA	0.326
ATAGTCGG	0.335
CCGAAGCC	0.0222
CAGTGCGA	-0.208
CCGGACTC	0.342
AGCTGATG	-0.0828
AATCCCCT	-0.165
AATTAGTC	0.0901
GCCCAACA	-0.0697
CAGTACAG	-0.158
CAGGCTTC	-0.167
CCGTCGCA	0.3
CAATACGG	0.202
AGCAAGTG	-0.315
CATTCGGG	0.184
ATTGGAGG	0.00227
GCGCGTCA	-0.0928
CCGTCTCA	0.229
ACTAGCTC	-0.083
CATGAAGG	-0.128
AATTTATA	-0.0843
